Measurements from PubChem BioAssay AID485294 (National Center for Advancing Translational Sciences (NCATS), 2010).
About 150 (0.041%) of roughly 370,000 compounds were called active. The inconclusive results got no clear call from the source; some entries with a clear call stand among them for comparison. Calls follow the shape of the dose curve; as a rule, active = well fitted inhibition curve with a large enough effect; inconclusive = small, poorly fitted or top-dose-only effect; inactive = flat fitted curve, though single readings scatter. Potencies of inconclusive entries are left out as doubtful fits.

molecular target: Beta-lactamase (Escherichia coli (strain K12)) (UniProt P00811); test: qHTS Inhibitors of AmpC Beta-Lactamase (assay with detergent); settings: AmpC hydrolysis of nitrocefin, absorbance 480 nm, 0.01% Triton; series mostly up to 114 µM; also: nearly all actives have a fitted effect of over 25% in size
Outline: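 AmpC (5.3 nM in the dispensed reagent) in 20 mM phosphate pH 7.0 with 0.01% (detergent screen) or 0.0001% Triton X-100 was preincubated with compounds for 15 min at room temperature. Nitrocefin was then added from an 800 uM solution, and hydrolysis was followed at 480 nm.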
Potency is read from the fitted curve at half-maximal effect; tags tell the direction and shape of the fitted curve.

Sequence of UniProt P00811 (P00811 whole entry, looked up): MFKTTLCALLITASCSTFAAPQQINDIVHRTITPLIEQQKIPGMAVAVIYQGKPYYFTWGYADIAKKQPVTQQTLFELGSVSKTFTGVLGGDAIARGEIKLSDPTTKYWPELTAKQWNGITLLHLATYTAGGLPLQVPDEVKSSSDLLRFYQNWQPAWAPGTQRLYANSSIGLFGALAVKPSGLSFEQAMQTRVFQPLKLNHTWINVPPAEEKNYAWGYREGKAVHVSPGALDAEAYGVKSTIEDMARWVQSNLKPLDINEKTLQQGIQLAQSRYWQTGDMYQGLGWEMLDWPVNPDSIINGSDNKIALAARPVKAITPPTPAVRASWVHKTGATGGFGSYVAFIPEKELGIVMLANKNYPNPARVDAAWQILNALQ

Structure (SMILES) | Potency
CSc1ccc(CN(C)C(=O)COc2ccc(C(=O)c3ccccc3)cc2)cc1 | inactive
Cc1ccccc1NC(=O)CNC(=O)c1ccc(C(F)(F)F)cc1 | inconclusive [inhibitor, partial curve, poor fit]
CCCS(=O)(=O)N1CCn2c(nc3ccccc32)C1 | inconclusive [inhibitor, partial curve]
Cc1cccc(NC(=O)CN(CC2CCCO2)C(=O)c2oc3ccc(F)cc3c2C)c1C (stereo not given) | inconclusive [inhibitor, full curve, poor fit]
COc1cccc(CN2CCN(Cc3c(C)nn(C(C)C)c3C)CC2CCO)c1 (stereo not given) | inactive
CCCCn1c(SCC(=O)N2CCC(C(=O)OCC)CC2)nc2cc(S(N)(=O)=O)ccc21 | inconclusive [inhibitor, full curve, poor fit]
CC1=CC(C)C(COC(N)=O)(COC(N)=O)C(C)C1 (stereo not given) | inconclusive [inhibitor, single point]
COc1cc(C(=O)Nc2ccc3c(c2)ncn3C(C)(C)C)cc(OC)c1OC | inconclusive [inhibitor, partial curve, poor fit]
COc1ccc(C(=O)N[C@H](C(=O)OCc2nc3ccsc3c(=O)[nH]2)C(C)C)cc1 | inconclusive [inhibitor, full curve, poor fit]
O=C(O)c1ccc(S(=O)(=O)N[C@H](Cc2ccc(O)cc2)C(=O)O)cc1 | inconclusive [inhibitor, full curve, poor fit]
COc1ccc(S(=O)(=O)Nc2ccccc2OC)cc1NC(=O)Cc1cccs1 | inconclusive [inhibitor, full curve, poor fit]
O=C1c2sc3nc4ccccc4n3c2C(=O)N1c1ccccc1Cl | inconclusive [inhibitor, full curve, poor fit]
CCN(C(=O)COC(=O)c1cn(C)c2ccccc12)c1ccc(F)cc1 | inconclusive [inhibitor, full curve, poor fit]
c1ccc2sc(C3CCN(Cc4nnnn4Cc4ccc5c(c4)OCO5)CC3)nc2c1 | inactive
Cc1ccc(C)c(CN2CCC(CNC(=O)Nc3ccc(Cl)cc3)CC2)c1 | inactive
O=c1[nH]nnc2sc3c(c12)CCCC3 | inconclusive [inhibitor, partial curve, poor fit]
O=S(=O)(c1ccccc1)c1nc(-c2ccco2)oc1NCc1ccccc1 | inconclusive [inhibitor, full curve, poor fit]
COC(=O)c1cc(OC)c(OC)cc1NC(=O)c1c(-c2ccccc2Cl)noc1C | inconclusive [inhibitor, partial curve]
Cc1ccc(NC(=O)CN2CCN(C)CC2)cc1Br | inconclusive [inhibitor, partial curve, poor fit]
Cc1ccc(C)c(N2CCN(c3ncnc4c3cnn4-c3ccccc3)CC2)c1 | inconclusive [inhibitor, full curve, poor fit]

Structure (SMILES) | Potency
c1ccc(CCn2nnnc2CN2CCN(C3CCCC3)CC2)cc1 | inconclusive [inhibitor, full curve, poor fit]
COc1ccc(NC(=O)CCCSc2nc(-c3ccco3)cc(C(F)(F)F)n2)cc1OC | inconclusive [inhibitor, partial curve]
O=C(NNC(=O)c1cc2cc3ccccc3nc2s1)c1cccc(Cl)c1 | inconclusive [inhibitor, partial curve, poor fit]
CCC(=O)Nc1cccc(-c2cn3cccc(C)c3n2)c1 | inactive
O=C(N/N=C/c1ccc(-c2ccc([N+](=O)[O-])cc2)o1)[C@H]1C[C@@H]1c1ccccc1 | inactive
Cc1ccc(/C=C/C(=O)OCC(=O)Nc2cccc(S(=O)(=O)N(C)C)c2)o1 | inconclusive [inhibitor, full curve, poor fit]
CCOc1ccc(S(=O)(=O)N2CCN(C(=O)c3ccccc3Cc3ccccc3)CC2)cc1 | inconclusive [inhibitor, partial curve, poor fit]
CCOC(=O)c1cc2n(n1)C(C(F)(F)C(F)(F)F)CC(C)N2 (stereo not given) | inconclusive [inhibitor, partial curve, poor fit]
C/C(CCc1ccc2c(c1)OCO2)=N\NC(=O)c1ccccc1Cl | inactive
CN1CCN(C(=O)CCn2nc(-c3ccccc3)c3ccccc3c2=O)CC1 | inconclusive [inhibitor, full curve, poor fit]
CCc1cc(=O)oc2cc(OCC(=O)NCCCn3ccnc3)c(Cl)cc12 | inconclusive [inhibitor, full curve, poor fit]
Cc1ccc(C(CNS(=O)(=O)c2ccc(Br)cc2)N2CCN(C)CC2)cc1 (stereo not given) | inactive
O=C(c1cnn(C(=O)c2ccccc2F)c1)c1ccccc1O | inconclusive [inhibitor, single point]
CN(C(=O)COC(=O)/C=C/c1ccc(Cl)c(Cl)c1)c1c(N)n(Cc2ccccc2)c(=O)[nH]c1=O | inconclusive [inhibitor, single point]
COc1ccc(CN2CC(C(=O)N3CCOCC3)CC2=O)cc1 (stereo not given) | inconclusive [inhibitor, full curve, poor fit]
O=C(N/N=C/c1c(Cl)cccc1Cl)c1ccccc1F | inconclusive [inhibitor, full curve, poor fit]
Oc1ccccc1-c1nc(NCCN2CCOCC2)c2ccccc2n1 | inactive
CSCC[C@H](NC(=O)[C@@H]1Cc2ccccc2CN1)C(=O)Nc1ccc2c(c1)OCO2 | inactive
N/C(=N\OC(=O)Oc1ccccc1)c1ccc([N+](=O)[O-])cc1 | inconclusive [inhibitor, partial curve, poor fit]
CSCCC(=O)N(C)CC1CCCN(CCc2cccc(C(F)(F)F)c2)C1 (stereo not given) | inconclusive [inhibitor, full curve, poor fit]
